The campaign covered roughly 340,000 compounds. About 1,000 (0.29%) were called active. This list was built around the results that the source calls inconclusive (neither active nor inactive); the mix of calls is not that of the screen. Rule as the data show it: inconclusive = inhibition above about 29% without an active follow-up result; inactive = below that.
Each compound was assayed against Genome polyprotein (Dengue virus type 2 (strain 16681-PDK53)) (UniProt P29991) (assay: Dengue-2 NS5 methyltransferase inhibitors, primary screen, biochemical, confirmation dose response (AID 588689)). Conditions: Dengue-2 NS5 methyltransferase capping enzyme assay, at 25 µM, hits give high values.
Sequence of UniProt P29991 (P29991 whole entry, looked up): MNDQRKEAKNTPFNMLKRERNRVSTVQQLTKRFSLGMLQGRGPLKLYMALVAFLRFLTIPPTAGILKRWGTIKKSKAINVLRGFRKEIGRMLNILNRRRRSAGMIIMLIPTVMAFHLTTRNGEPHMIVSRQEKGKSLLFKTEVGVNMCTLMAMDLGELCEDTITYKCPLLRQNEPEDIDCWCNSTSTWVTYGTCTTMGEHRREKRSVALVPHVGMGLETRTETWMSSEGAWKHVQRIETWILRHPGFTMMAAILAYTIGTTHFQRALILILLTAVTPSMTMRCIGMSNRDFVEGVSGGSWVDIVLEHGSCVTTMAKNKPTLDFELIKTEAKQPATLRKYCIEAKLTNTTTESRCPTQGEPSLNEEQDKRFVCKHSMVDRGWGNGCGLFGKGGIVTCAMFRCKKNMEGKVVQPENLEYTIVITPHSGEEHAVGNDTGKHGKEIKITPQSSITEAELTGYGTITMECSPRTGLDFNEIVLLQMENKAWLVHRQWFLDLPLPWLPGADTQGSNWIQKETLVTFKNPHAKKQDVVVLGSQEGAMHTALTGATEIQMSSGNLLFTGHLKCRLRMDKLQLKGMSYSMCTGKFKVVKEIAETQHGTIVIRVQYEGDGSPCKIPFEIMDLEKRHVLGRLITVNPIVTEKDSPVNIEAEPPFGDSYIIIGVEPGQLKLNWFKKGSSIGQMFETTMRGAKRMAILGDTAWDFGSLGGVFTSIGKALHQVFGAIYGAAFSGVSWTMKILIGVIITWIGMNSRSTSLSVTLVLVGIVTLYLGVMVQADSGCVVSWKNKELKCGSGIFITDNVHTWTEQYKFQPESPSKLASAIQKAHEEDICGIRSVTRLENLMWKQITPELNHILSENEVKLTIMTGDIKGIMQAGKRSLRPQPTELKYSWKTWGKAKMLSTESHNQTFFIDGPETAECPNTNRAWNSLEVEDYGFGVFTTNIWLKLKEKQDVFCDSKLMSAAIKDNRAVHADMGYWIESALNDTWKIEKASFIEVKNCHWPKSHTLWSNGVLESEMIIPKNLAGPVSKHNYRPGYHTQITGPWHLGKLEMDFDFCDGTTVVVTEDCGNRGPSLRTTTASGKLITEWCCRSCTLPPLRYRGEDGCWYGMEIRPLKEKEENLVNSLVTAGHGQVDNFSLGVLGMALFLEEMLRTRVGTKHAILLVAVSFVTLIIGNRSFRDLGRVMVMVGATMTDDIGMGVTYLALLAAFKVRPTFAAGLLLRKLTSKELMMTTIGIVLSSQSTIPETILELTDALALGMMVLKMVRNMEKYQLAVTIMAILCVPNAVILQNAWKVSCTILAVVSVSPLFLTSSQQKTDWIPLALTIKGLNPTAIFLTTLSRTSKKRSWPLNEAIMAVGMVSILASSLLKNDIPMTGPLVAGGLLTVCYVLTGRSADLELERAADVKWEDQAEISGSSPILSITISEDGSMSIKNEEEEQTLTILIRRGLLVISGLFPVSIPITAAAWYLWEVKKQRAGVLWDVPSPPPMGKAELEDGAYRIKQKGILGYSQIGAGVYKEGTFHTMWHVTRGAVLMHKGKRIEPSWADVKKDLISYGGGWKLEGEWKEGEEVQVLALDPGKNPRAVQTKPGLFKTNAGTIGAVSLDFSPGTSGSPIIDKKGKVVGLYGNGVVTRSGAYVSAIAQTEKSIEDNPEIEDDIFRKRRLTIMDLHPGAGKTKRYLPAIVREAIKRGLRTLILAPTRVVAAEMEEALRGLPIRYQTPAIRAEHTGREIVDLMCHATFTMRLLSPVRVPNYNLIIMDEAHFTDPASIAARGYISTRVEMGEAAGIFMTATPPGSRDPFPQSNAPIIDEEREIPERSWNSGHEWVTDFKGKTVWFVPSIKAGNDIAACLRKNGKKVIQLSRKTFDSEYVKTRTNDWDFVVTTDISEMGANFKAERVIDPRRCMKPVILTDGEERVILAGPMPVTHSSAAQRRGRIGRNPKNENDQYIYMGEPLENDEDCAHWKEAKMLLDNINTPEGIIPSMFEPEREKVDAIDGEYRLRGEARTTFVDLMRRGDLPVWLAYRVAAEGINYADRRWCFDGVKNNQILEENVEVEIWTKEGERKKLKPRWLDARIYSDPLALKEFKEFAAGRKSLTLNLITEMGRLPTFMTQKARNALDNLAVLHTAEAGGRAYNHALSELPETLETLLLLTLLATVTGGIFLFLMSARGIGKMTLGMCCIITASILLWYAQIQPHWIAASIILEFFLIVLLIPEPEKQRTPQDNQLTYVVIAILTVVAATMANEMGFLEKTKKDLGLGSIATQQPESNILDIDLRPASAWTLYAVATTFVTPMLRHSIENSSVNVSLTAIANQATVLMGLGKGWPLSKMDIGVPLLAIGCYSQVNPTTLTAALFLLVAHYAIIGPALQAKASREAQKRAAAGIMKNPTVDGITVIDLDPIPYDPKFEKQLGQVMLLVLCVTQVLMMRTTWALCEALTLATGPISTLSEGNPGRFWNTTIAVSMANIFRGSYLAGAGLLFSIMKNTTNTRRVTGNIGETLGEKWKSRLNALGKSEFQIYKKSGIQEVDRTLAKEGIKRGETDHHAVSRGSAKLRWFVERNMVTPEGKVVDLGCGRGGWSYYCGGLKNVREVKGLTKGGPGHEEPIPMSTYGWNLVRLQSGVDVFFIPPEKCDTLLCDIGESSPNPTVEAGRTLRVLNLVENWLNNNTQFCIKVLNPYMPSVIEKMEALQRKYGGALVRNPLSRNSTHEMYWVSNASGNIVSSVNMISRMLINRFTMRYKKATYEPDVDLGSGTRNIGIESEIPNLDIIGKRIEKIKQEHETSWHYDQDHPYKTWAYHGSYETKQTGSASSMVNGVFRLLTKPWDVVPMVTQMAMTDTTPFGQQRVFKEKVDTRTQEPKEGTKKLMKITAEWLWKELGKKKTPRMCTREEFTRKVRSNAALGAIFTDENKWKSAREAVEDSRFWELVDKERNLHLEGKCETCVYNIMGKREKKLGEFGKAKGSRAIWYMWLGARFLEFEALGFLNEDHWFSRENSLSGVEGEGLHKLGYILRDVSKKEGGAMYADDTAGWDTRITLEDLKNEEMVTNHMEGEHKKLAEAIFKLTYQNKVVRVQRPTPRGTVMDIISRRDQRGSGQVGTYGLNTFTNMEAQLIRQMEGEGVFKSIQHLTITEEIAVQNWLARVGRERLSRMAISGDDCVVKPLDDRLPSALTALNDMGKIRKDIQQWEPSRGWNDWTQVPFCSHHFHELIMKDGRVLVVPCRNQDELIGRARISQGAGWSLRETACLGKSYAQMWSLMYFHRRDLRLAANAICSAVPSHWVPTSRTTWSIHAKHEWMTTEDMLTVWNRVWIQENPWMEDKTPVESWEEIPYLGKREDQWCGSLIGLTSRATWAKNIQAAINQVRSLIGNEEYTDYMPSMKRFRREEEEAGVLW
`Nn1c(COc2ccccc2F)nnc1SCC(=O)NC1CCCC1` was tested, and the inhibition was inactive: -8.38%. In the case of `CCN(CC)C1CC(=O)N(c2ccc(Br)cc2)C1=O` (centres undefined), the inhibition is reported as inactive: -14.3%. In the case of `CCN1C(=O)/C(=C/c2cccs2)S/C1=N\S(=O)(=O)c1ccc(C)cc1`, the inhibition is reported as inactive: -2.56%. `O=C1CCNc2ccc(-c3ccccc3)cc21` was tested, and the inhibition was inconclusive: 116%. For `CCOCCCn1c(=NC(=O)c2cccs2)c(C#N)cc2c(=O)n3ccccc3nc21`, the inhibition was inconclusive: 92.4%. For `C/C(=C\COc1cc(=O)[nH]c2ccccc12)CCC(O)C(C)(C)O` (centres undefined), the inhibition was inactive: -11.2%. `NC(N)=S` was tested, and the inhibition was inconclusive: 75.2%. In the case of `Fc1cccc(CN(C2=NCCN2)c2c(Cl)cccc2Cl)c1`, the inhibition is reported as inconclusive: 164%. For `CCOc1ccc(C2CC(c3c(O)c4ccccc4oc3=O)=NN2c2ccccc2)cc1OC` (centres undefined), the inhibition was inconclusive: 47.7%. `CCCn1c(/C=C/c2cc[n+](C)cc2)nc2ccccc21` was tested, and the inhibition was inconclusive: 42.7%. For `CC1=CC(=O)C=C/C1=C(/c1ccc(O)cc1C)c1ccccc1S(=O)(=O)O`, the inhibition was inactive: -1.47%. For `CC(=O)Nc1c2c3c(cccc3n(C)c1=O)C(=O)c1ccccc1-2`, the inhibition was inconclusive: 37.6%. `CC(C)(C)OC(=O)N1CCC(CC2CC(c3ccccc3)=NO2)(C(=O)O)CC1` (centres undefined) was tested, and the inhibition was inactive: -3.93%. In the case of `CC(C)(C)c1cc[n+](-c2[nH]c(=O)sc2/C=N/NC(=O)c2ccccc2[O-])cc1`, the inhibition is reported as inconclusive: 47.7%. In the case of `O=C(Nc1ccc2nc(-c3ccco3)c(-c3ccco3)nc2c1)NC1CC1`, the inhibition is reported as inconclusive: 81%. In the case of `CCOc1ccccc1NC(=O)CSCC(=O)Nc1ccccc1`, the inhibition is reported as inactive: 0%. For `COc1ccc(N(CC(=O)N/N=C/c2ccc(-c3ccc([N+](=O)[O-])cc3)o2)S(=O)(=O)c2ccc(C)cc2)cc1Cl`, the inhibition was inactive: -4.14%. For `COc1ccccc1N1C(=O)CC(N2CCN(c3ccc(F)cc3)CC2)C1=O` (centres undefined), the inhibition was inactive: -6.31%. For `COc1cc(/C=C/C=C2/CC/C(=C/C=C/c3ccc(O)c(OC)c3)C2=O)ccc1O`, the inhibition was inconclusive: 41.8%. For `COc1ccc2[nH]c(C)c(CCN(Cc3cccs3)C(=S)Nc3ccccc3)c2c1`, the inhibition was inconclusive: 49.3%. With `COc1ccc(CNC(=O)c2cc(=O)c3cc(C)cc(C)c3o2)cc1` the inhibition was inactive: -5.29%. For `O=C(Cc1ccc(Br)cc1)NCCCn1ccnc1`, the inhibition was inactive: -12.3%. In the case of `CCC(=O)c1ccc(OCC(O)CN2CCN(S(=O)(=O)N3CCCCC3)CC2)cc1` (centres undefined), the inhibition is reported as inactive: 5.46%. In the case of `COc1ccc(C(C)=O)cc1CSc1nc2cc(C(=O)O)ccc2c(=O)n1Cc1ccccc1`, the inhibition is reported as inactive: 4.46%.
